# Results: PubChem BioAssay AID686979 (National Center for Advancing Translational Sciences (NCATS), 2013)
# Screen size: about 420,000 compounds; about 50,000 (12%) were called active. This list was built around the results that the source calls inconclusive (neither active nor inactive); the mix of calls is not that of the screen. Calls follow the shape of the dose curve; as a rule, active = well fitted inhibition curve with a large enough effect; inconclusive = small, poorly fitted or top-dose-only effect; inactive = flat fitted curve, though single readings scatter. Potencies of inconclusive entries are left out as doubtful fits.
# Assay: qHTS for Inhibitors of human tyrosyl-DNA phosphodiesterase 1 (TDP1): qHTS in cells in presence of CPT; also: nearly all actives have a fitted effect of over 55% in size
# Conditions: chicken DT40 Tdp1-/-;hTDP1 cells + 20 nM CPT, ATP luminescence, 48 h; activity change, negative = growth inhibition: at 46.2 µM (top of the series)
# Outline: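 Cell growth measured by CellTiter-Glo luminescence after a minimum 48 h, 37 C compound exposure with 20 nM CPT in Tdp1-knockout DT40 cells stably expressing hTDP1, seeded 400/well; qHTS titration format.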
# % is scaled to controls: 0 for no effect and ±100 for the full control effect; potency is read from the fitted curve at half-maximal effect; tags tell the direction and shape of the fitted curve.
SMILES,Potency,"activity change, negative = growth inhibition"
CC1CCN(C(=O)COC(=O)c2cc(=O)[nH]c3ccccc23)CC1,inactive,
CCC(C)Nc1c2c(nc3c(-c4ccccc4)c(C)nn13)CCC2 (centres undefined),"inconclusive [inhibitor, partial curve]",
CC(C)COC(=O)c1cccc2c1-c1ccccc1/C2=N\O,inactive,
O=C(c1cnccn1)N1CCC2(CCN(Cc3cc(C(F)(F)F)cc(C(F)(F)F)c3)CC2)CC1,"inconclusive [inhibitor, single point]",
O=C(CCCc1c[nH]c2ccccc12)NCc1ccccc1F,"inconclusive [inhibitor, single point]",
CN(C)C(=O)c1ccc(NC(=O)c2cccc(S(=O)(=O)N3CCN(Cc4ccccc4)CC3)c2)cc1,active: 14.6 µM,
COCCSc1nnc(NC(=O)Cc2ccc(OC)c(OC)c2)s1,"inconclusive [inhibitor, single point]",
O=C(Nc1ccc(Br)cc1)c1cccc(S(=O)(=O)Nc2cnc3ccccc3c2)c1,inactive,
COc1ccc(-c2c([C@H]3[C@@H]4C=CCC[C@@]4(C)C(=O)N3Cc3ccccc3)ccc3ccccc23)cc1OC,"inconclusive [inhibitor, single point]",
Cc1c(Cl)cccc1NC(=O)CN1C(=O)COc2ccc(S(=O)(=O)Nc3ccccc3)cc21,"inconclusive [inhibitor, single point]",
COc1ccc(NC(=O)CSc2nnc(-c3cccnc3)o2)c(OC)c1,inactive,
COC(=O)Cc1csc(NC(=O)CSc2nnc3ccccn23)n1,"inconclusive [inhibitor, single point]",
CN1CCCC(n2nc(Cc3ccc(Cl)cc3)c3ccccc3c2=O)CC1 (centres undefined),active: 13 µM,
O=[n+]1c2c(n([O-])c3ccccc31)CCCC2,inactive,
Cc1c(NC(=O)CSc2ccccn2)c(=O)n(-c2ccccc2)n1C,inactive,
O=C(Nc1ccccc1C(=O)Nc1nccs1)c1ccccc1,"inconclusive [inhibitor, single point]",
CCOC(=O)c1cccc(NC(=O)C(C)n2c(C)c3cnn(-c4ccccc4)c(=O)c3c2C)c1 (centres undefined),"inconclusive [inhibitor, partial curve]",
Cc1c(NS(=O)(=O)c2cccc(C(=O)Nc3ccc(SC(F)F)cc3)c2)c(=O)n(-c2ccccc2)n1C,"inconclusive [inhibitor, single point]",
Cc1ccccc1C(=NCCCN(C)C)c1ccccc1C,inactive,
Cc1cc(N2CCCC2=O)ccc1S(=O)(=O)Nc1c(C)nn(C)c1C,"inconclusive [inhibitor, partial curve]",
CN(Cc1ccccc1)c1cc(Cl)nc(N)n1,,inconclusive: -21.3% [inhibitor]
Cc1ccc(S(=O)(=O)N2CCN(S(=O)(=O)N3CCCCCC3)CC2)cc1,inactive,

SMILES,Potency,"activity change, negative = growth inhibition"
Clc1nssc1=Nc1ccc(Br)cc1,active: 10.3 µM,
COc1ccc(-c2cc(C(F)(F)F)n3nc(C(=O)N4CCN5CCCC5C4)cc3n2)cc1OC (centres undefined),"inconclusive [inhibitor, single point]",
C[C@H](CO)N1C[C@H](C)[C@@H](CN(C)S(=O)(=O)c2ccc(F)cc2)Oc2ccc(NC(=O)Cc3ccccc3)cc2C1=O,"inconclusive [inhibitor, single point]",
COc1cccc(-n2c(SCC(=O)NC3CCCCC3)nc3n[nH]c(C)c3c2=N)c1,"inconclusive [inhibitor, single point]",
COc1cc2cc(CN(Cc3nnnn3Cc3ccccc3)CC3CCCO3)c(=O)[nH]c2cc1OC (centres undefined),"inconclusive [inhibitor, single point]",
COc1ccccc1C(=O)Nc1nnc(SCC(=O)NCc2ccco2)s1,"inconclusive [inhibitor, single point]",
COC(=O)Nc1sc2c(c1C(N)=O)CCCCCC2,active: 16.4 µM,
O=C(CSc1nc2ccccc2nc1Cc1ccccc1)Nc1ccc2c(c1)OCO2,"inconclusive [inhibitor, single point]",
CCCCN1C(N)=NC[C@@H]1C(C)O (some centres undefined),inactive,
CC(=O)Nc1ncc(Cc2cccc(Cl)c2)s1,inactive,
CN(C)S(=O)(=O)c1ccc(NC(=O)CSc2nc3ccccc3n2-c2ccccc2)cc1,"inconclusive [inhibitor, single point]",
CC(C)NS(=O)(=O)c1ccc2nc(NC(=O)c3cncc(Br)c3)sc2c1,"inconclusive [inhibitor, single point]",
O=C(CSC1=NC2(CCCCCC2)N=C1c1ccccc1)Nc1ccc2c(c1)OCCO2,"inconclusive [inhibitor, single point]",
C=CCn1c(SCC(=O)c2ccc(Cl)s2)nc2ccccc2c1=O,"inconclusive [inhibitor, single point]",
Cc1ccc(NC(=O)CN(C)S(=O)(=O)c2ccc3nc(C)sc3c2)c(C)c1,inactive,
CCC/C(O)=C1\C(=O)CC(c2ccccc2)CC1=NCCc1c(C)[nH]c2ccccc12 (centres undefined),"inconclusive [inhibitor, single point]",
Cc1ccc(CN2CC[C@H]3C=CCc4cccc(c43)C2)cc1,"inconclusive [inhibitor, single point]",
Cc1cc(C)cc(OC(C)C(=O)Nc2ccccc2C(=O)NCc2cccnc2)c1 (centres undefined),"inconclusive [inhibitor, single point]",
CN1CCC2(CC1)Nc1nc(SCc3ccc(Cl)cc3)nn1C1=C2CN(C)CC1,"inconclusive [inhibitor, single point]",
Cc1ccc(N2C(=O)C3ON(c4ccccc4)C(c4ccncc4)C3C2=O)cc1 (centres undefined),,inconclusive: -36.2% [inhibitor]
CN(C(=O)CSc1ncnc2sc(-c3ccccc3)cc12)C1CCS(=O)(=O)C1 (centres undefined),"inconclusive [inhibitor, partial curve]",
O=C(C[C@H]1C/C=C\CC[C@H](Cc2ccc(F)cc2)C(=O)O[C@H](c2ccccc2)CNC1=O)N[C@H](CO)Cc1ccccc1,active: 13 µM,
